# Experimental data as given in PubChem BioAssay AID1460 (National Center for Advancing Translational Sciences (NCATS), 2008).
# Several values for one entry are separate records, joined by “and”; a condition that tells them apart may be missing. Identical values can stand only once. About 5,800 (2.1%) of roughly 270,000 compounds were called active. Inconclusive means that the source gave no clear call. Such entries were picked first, then a sample of the others. The call rests on the fitted dose curve; in most records, active means well fitted inhibition curve with a large enough effect; inconclusive means small, poorly fitted or top-dose-only effect; inactive means flat fitted curve, though single readings scatter. Where the call is inconclusive, the potency comes from a doubtful curve fit.
# Molecular target: Microtubule-associated protein tau (Homo sapiens) (UniProt P10636)
# Chain of UniProt P10636 (P10636 whole entry, looked up): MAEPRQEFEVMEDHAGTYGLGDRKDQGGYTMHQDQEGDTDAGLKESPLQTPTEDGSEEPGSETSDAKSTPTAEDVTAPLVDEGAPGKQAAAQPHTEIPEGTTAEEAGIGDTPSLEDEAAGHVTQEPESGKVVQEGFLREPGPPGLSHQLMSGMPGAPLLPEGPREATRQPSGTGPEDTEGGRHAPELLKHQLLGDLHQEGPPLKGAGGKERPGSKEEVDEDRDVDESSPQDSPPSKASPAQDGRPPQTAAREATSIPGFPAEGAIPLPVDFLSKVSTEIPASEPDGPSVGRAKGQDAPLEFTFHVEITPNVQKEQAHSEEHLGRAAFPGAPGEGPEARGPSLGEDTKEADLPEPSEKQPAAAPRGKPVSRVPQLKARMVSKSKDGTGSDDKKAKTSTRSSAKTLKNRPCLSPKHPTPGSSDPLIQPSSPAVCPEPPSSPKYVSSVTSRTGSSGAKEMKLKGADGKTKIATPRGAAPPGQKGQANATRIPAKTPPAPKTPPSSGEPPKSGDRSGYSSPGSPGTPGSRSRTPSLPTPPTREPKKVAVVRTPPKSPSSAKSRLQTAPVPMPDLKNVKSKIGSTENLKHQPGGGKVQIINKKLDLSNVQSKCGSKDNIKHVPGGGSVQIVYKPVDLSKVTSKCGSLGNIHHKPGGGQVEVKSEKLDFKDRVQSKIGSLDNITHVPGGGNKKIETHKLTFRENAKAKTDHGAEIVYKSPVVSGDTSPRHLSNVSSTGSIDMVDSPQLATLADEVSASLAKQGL
# Assay: qHTS for Inhibitors of Tau Fibril Formation, Thioflavin T Binding; further: nearly all actives have a fitted effect of over 55% in size
# Details: recombinant tau K18 P301L (four-repeat tau fragment), heparin-induced fibrillization, ThT fluorescence; series mostly up to 57.4 µM
# Outline: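 K18 P301L tau (15 uM + 0.24 uM Alexa 594-tagged), heparin 20 uM, NaOAc pH 7, 6 h 37 C; ThT 30 uM, 1 h RT, ex 450/em 510 nm.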
# Potency means the concentration at half of the fitted maximal effect; tags describe the fitted curve by direction and shape.
row,SMILES,Potency
1,CCOc1ccccc1CNC(=O)Cc1ccc(NC(=O)N2CCCCc3ccccc32)cc1,inactive
2,CCOC(=O)CSc1nnc(NC(=O)NC(C)C)s1,inactive
3,CCc1ccc(CNC(=O)c2ccc3c(Cl)c4c(nc3c2)CCCC4)cc1,"inconclusive: 44.7 µM [inhibitor, single point]"
4,COc1ccc(/C(C)=N\NC(=O)c2ccc3c(c2)OCO3)cc1OC,"inconclusive: 10 µM [inhibitor, partial curve]"
5,O=C(/C=C/c1ccc([N+](=O)[O-])cc1)NCCOc1ccc(F)cc1,"inconclusive: 15.8 µM [inhibitor, partial curve]"
6,CCCCCCCC/C=C\CCCCCCCC(=O)NCCc1ccc(O)c(O)c1,"inconclusive: 5.62 µM [inhibitor, full curve] and inconclusive: 22.4 µM [inhibitor, partial curve]"
7,Cc1ccc(NCCC(=O)c2cccc([N+](=O)[O-])c2)cc1,"inconclusive: 28.2 µM [inhibitor, partial curve]"
8,O=C(c1ccccc1)c1ccc(OCC(O)CN2CCCC2)cc1 (stereo not drawn),inactive
9,COc1cc(-c2nc(S(=O)(=O)c3ccc(Br)cc3)c(N3CCOCC3)o2)cc(OC)c1OC,inactive
10,COc1ccc(N2CCN(C(=O)Cc3ccc(Br)cc3)CC2)cc1,"inconclusive: 11.2 µM [inhibitor, partial curve]"
11,CN(C)c1ccc(NC(=O)Nc2csc3ccccc23)cc1,active: 3.55 µM
12,C[C@@H](c1ccccc1)N1C(=O)[C@@H]2[C@H]3C(=CC[C@H]2C1=O)C(=O)[C@H]1O[C@H]1[C@H]3O,"inconclusive: 3.98 µM [inhibitor, partial curve]"
13,COC(=O)CC1C(=O)NCCN1C(=O)CSc1nc2ccccc2s1 (stereo not drawn),"inconclusive: 35.5 µM [inhibitor, single point]"
14,O=C(Nn1c(C2CCCCC2)nc2ccccc2c1=O)c1ccc(Cl)c([N+](=O)[O-])c1,"inconclusive: 17.8 µM [inhibitor, single point]"
15,CC1CCN(S(=O)(=O)c2ccc3ccccc3c2)CC1,inactive
16,CCOc1ccc(-c2cn(S(=O)(=O)c3cccc4nsnc34)nc2N)cc1,"inconclusive: 12.6 µM [inhibitor, partial curve]"
17,CCOC(=O)N1CCC(NC(=O)CCC(=O)N2CCOc3ccccc32)CC1,"inconclusive: 31.6 µM [inhibitor, partial curve]"
18,COc1cc(C(=O)NNc2nc3cc4c(cc3s2)OCO4)cc(OC)c1OC,"inconclusive: 17.8 µM [inhibitor, partial curve]"
